The list shows a part of the results. At the low end of the ranking the order means little.

The target in the assay is GST-SBP-SLBP (stem-loop binding protein) (UniProt Q14493). In words: targeted RNA Bind-n-Seq.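 Note: DESeq read counts versus GST-SBP nonspecific binding control pulldown.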 To be noted: RBNS binding buffer: 25 mM Tris pH 7.5, 150 mM KCl, 3 mM MgCl2, 0.1% Tween, 0.5 mg/mL BSA, 1 mM DTT; 27 nM protein, 750 pM RNA pool; temperature not stated; high values mean tight binding.
“GGUCACGUCUCAAUCAACUCUUUUCCCAGGGAAACCCCUGGUAUUCUCAACAGCUCGCAGUCAAG”: the binding signal (log2 fold change) is -0.0682.
“GGUCACGUCUCAAUCAACUCAUUUCCAGGAGUUUACUCCUGUUUUCUCAACAGCUCGCAGUCAAG”: the binding signal (log2 fold change) worked out at 0.134.
In the case of “GGUCACGUCUCAAUCAACUCAUUCCCCAGGGAAACCCCUGGUAUUUUCAACAGCUCGCAGUCAAG” it was 0.0141; in that of “GGUCACGUCUCAAUCAACUCUUCUUCCAGGGAAAUCCCUGGUUAUCUCAACAGCUCGCAGUCAAG”, 0.165; in that of “GGUCACGUCUCAAUCAACUCCCUAGAGGGGGGGAAAACCCCUUUGCCCUCAAAAUCAACAGCUCGCAGUCAAG”, 0.0264.
To “GGUCACGUCUCAAUCAACUCAGUCCCAGGAGUUUCCUCCUGUUUAUUCAACAGCUCGCAGUCAAG” belongs -0.117; to “GGUCACGUCUCAAUCAACUCAAUAGAGGGGGGGAAAACCCCUUUGCCCUCAAAUUCAACAGCUCGCAGUCAAG”, -0.0968; to “GGUCACGUCUCAAUCAACUCUAUUCCCAGGGAAACCCCUGGUAUUUUCAACAGCUCGCAGUCAAG”, -0.0783.
As to “GGUCACGUCUCAAUCAACUCAUCUCCAGGAGUUUCCUCCUGCUAUCUCAACAGCUCGCAGUCAAG”, the binding signal (log2 fold change) came out at 0.00875.
In the case of “GGUCACGUCUCAAUCAACUCUUCCUCAGGAGUUUACUCCUGUUUACUCAACAGCUCGCAGUCAAG” it was -0.0743.
To “GGUCACGUCUCAAUCAACUCAGUCCCCAGGGAAACCCCUGGCUAAUUCAACAGCUCGCAGUCAAG” belongs -0.148; to “GGUCACGUCUCAAUCAACUCAUCCUCAGGAGUUUUCUCCUGCUAUUUCAACAGCUCGCAGUCAAG”, -0.0398.
To “GGUCACGUCUCAAUCAACUCAUCUCCCAGGGAAAGCCCUGGCUAAUUCAACAGCUCGCAGUCAAG” belongs -0.219; to “GGUCACGUCUCAAUCAACUCUUCCUCCAGGGAAAGCCCUGGUAAUCUCAACAGCUCGCAGUCAAG”, -0.0682.
Take “GGUCACGUCUCAAUCAACUCUCAAGAGGGGGGGAAAACCCCUUUGCCCUCACCUUCAACAGCUCGCAGUCAAG”: the binding signal (log2 fold change) is -0.448.
To “GGUCACGUCUCAAUCAACUCAAUAGAGGGGGGGAAAACCCCUUUGCCCUCCAUAUCAACAGCUCGCAGUCAAG” belongs 0.101; to “GGUCACGUCUCAAUCAACUCUACUCCCAGGGAAACCCCUGGUUUACUCAACAGCUCGCAGUCAAG”, 0.0345.
Regarding “GGUCACGUCUCAAUCAACUCUUCUUCCAGGGAAAGCCCUGGUAUACUCAACAGCUCGCAGUCAAG”, the binding signal (log2 fold change) is -0.0117.
To “GGUCACGUCUCAAUCAACUCACAAGAGGGGGGGAAAACCCCUUUACCCUCAACAUCAACAGCUCGCAGUCAAG” belongs -0.221; to “GGUCACGUCUCAAUCAACUCUAUCUCCAGGGAAAUCCCUGGUUAAUUCAACAGCUCGCAGUCAAG”, -0.128; to “GGUCACGUCUCAAUCAACUCAAUUCCAGGAGUUUACUCCUGUUAACUCAACAGCUCGCAGUCAAG”, 0.0784.
In the case of “GGUCACGUCUCAAUCAACUCAUCCUCAGGAGUUUACUCCUGUUAUUUCAACAGCUCGCAGUCAAG”, the binding signal (log2 fold change) amounted to 0.0496.
In the case of “GGUCACGUCUCAAUCAACUCUAUUUCAGGAGUUUGCUCCUGCUUAUUCAACAGCUCGCAGUCAAG” it was -0.106.
Take “GGUCACGUCUCAAUCAACUCUAACGAGGGGGGGAAAACCCCUUUGCCCUCAAAAUCAACAGCUCGCAGUCAAG”: the binding signal (log2 fold change) is 0.247.
In the case of “GGUCACGUCUCAAUCAACUCAUCAGAGGGGGGGAAAACCCCUUUGCCCUCAUCAUCAACAGCUCGCAGUCAAG” it was -0.291.
To “GGUCACGUCUCAAUCAACUCAACUCCAGGAGUUUACUCCUGCAAACUCAACAGCUCGCAGUCAAG” belongs 0.0253; to “GGUCACGUCUCAAUCAACUCAUCCUCCAGGGAAAACCCUGGUAAUCUCAACAGCUCGCAGUCAAG”, 0.137.
With “GGUCACGUCUCAAUCAACUCAGUCCCCAGGGAAAUCCCUGGCAUUCUCAACAGCUCGCAGUCAAG”, the binding signal (log2 fold change) amounted to 0.0335.
For the sequence “GGUCACGUCUCAAUCAACUCUUUUUCCAGGGAAACCCCUGGUAUACUCAACAGCUCGCAGUCAAG”, the binding signal (log2 fold change) was determined as 0.445.
As for “GGUCACGUCUCAAUCAACUCUAUUUCCAGGGAAAGCCCUGGUAUUCUCAACAGCUCGCAGUCAAG”, the binding signal (log2 fold change) turned out to be 0.00323.
To “GGUCACGUCUCAAUCAACUCUAACGAGGGGGGGAAAACCCCUUUACCCUCAACCUCAACAGCUCGCAGUCAAG” belongs 0.18; to “GGUCACGUCUCAAUCAACUCAUCGUCAGGAGUUUCCUCCUGCAAUUUCAACAGCUCGCAGUCAAG”, -0.0387.
Regarding “GGUCACGUCUCAAUCAACUCAUGUCCAGGAGUUUUCUCCUGUAUUUUCAACAGCUCGCAGUCAAG”, the binding signal (log2 fold change) was found to be 0.0148.
In the case of “GGUCACGUCUCAAUCAACUCAAUUCCCAGGGAAAGCCCUGGUAUUUUCAACAGCUCGCAGUCAAG” it was 0.0297; in that of “GGUCACGUCUCAAUCAACUCAUCUCCCAGGGAAACCCCUGGCUAUCUCAACAGCUCGCAGUCAAG”, -0.163; in that of “GGUCACGUCUCAAUCAACUCACUCGAGGGGGGGAAAACCCCUUUACCCUCACAUUCAACAGCUCGCAGUCAAG”, -0.0439.
To “GGUCACGUCUCAAUCAACUCUUCUCCCAGGGAAAGCCCUGGUUAUCUCAACAGCUCGCAGUCAAG” belongs -0.208.

For the origin of these results see article PMC5892938.
